Results are given in words; binding and its absence hold for the method and conditions named. In cells and extracts the contact can be indirect. Some binding calls cover weakened binding; strength is not graded here. For some assays here: Tags and fused reporters may be left off the sequences shown.
Assays:
[1] = target: Flag-EEF1A1 (UniProt P68104); assay: co-IP; HEK293T cells co-transfected with Flag- and HA-tagged plasmids; RIPA lysis buffer (50 mM Tris-HCl pH 7.4, 150 mM NaCl, 1% NP-40, 1 mM EDTA, 5% glycerol); antibody (anti-Flag, anti-HA or anti-NLRP3) at 4 °C overnight, protein G-agarose 2 h, washes with 300 mM NaCl; immunoblot
[2] = target: T1, Flag-SLC25A3 (not stated (human or mouse cDNA cloned)) (UniProt Q00325); assay: as above
T1 sequence: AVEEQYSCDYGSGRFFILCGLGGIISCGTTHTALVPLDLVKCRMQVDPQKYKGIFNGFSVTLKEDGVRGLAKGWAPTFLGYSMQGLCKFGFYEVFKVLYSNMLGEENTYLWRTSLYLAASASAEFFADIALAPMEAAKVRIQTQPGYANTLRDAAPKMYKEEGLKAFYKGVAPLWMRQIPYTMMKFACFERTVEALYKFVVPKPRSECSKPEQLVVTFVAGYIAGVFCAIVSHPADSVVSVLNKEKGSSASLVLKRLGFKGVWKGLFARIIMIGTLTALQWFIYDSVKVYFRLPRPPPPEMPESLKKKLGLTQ

Sequences of proteins named here, by UniProt entry; tags and fusion partners are left off.
UniProt P68104: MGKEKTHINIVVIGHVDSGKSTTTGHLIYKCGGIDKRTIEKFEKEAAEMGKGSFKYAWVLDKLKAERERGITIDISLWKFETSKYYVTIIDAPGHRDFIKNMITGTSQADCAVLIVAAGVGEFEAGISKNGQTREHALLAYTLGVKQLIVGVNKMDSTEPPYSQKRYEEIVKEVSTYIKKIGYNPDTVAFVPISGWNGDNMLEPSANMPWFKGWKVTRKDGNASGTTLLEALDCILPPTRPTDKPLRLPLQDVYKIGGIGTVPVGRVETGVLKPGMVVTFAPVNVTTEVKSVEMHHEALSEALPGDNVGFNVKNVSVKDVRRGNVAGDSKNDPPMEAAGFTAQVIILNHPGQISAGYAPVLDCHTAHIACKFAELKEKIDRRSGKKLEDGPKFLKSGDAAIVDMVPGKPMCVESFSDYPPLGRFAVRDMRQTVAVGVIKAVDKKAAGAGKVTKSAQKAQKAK
UniProt Q96P20: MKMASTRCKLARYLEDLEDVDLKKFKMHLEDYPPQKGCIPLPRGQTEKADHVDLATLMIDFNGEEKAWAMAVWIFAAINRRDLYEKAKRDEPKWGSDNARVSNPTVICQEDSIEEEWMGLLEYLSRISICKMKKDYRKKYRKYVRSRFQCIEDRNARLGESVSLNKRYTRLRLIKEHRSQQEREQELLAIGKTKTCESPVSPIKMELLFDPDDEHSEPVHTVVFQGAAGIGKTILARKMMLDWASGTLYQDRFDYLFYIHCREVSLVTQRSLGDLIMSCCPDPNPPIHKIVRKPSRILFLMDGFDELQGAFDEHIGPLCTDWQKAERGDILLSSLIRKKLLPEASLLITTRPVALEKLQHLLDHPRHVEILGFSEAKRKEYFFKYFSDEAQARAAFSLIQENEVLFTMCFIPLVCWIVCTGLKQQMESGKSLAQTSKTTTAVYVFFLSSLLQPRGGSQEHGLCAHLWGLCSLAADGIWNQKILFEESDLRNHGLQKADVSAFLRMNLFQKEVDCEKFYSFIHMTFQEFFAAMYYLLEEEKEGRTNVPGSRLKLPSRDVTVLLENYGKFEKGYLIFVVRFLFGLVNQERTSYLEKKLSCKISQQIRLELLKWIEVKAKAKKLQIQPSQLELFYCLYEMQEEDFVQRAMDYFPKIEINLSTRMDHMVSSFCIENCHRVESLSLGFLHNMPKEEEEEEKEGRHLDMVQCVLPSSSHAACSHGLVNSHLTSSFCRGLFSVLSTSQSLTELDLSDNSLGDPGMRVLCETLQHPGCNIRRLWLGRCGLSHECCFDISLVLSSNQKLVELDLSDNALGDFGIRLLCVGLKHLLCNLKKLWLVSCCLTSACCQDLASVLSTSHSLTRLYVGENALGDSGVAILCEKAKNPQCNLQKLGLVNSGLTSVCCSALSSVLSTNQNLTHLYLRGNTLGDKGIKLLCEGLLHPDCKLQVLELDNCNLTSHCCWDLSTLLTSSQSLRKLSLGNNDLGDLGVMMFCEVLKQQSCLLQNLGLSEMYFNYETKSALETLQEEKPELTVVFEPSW
UniProt Q8TDX7: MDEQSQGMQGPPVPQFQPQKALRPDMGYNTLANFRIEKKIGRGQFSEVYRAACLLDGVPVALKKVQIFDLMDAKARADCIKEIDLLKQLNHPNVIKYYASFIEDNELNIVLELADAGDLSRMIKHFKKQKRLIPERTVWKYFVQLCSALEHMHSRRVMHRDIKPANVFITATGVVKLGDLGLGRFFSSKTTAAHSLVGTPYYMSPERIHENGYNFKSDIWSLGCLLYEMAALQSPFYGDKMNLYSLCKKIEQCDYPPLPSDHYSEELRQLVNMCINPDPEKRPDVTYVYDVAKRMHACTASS

[3] = target: Flag-NLRP3 (UniProt Q96P20); assay: co-IP; competition: HEK293T cells with Flag-NLRP3 and Flag-NEK7 plus Vector-HA or HA-SLC25A3, or Flag-NLRP3 and HA-SLC25A3 plus Vector-Flag or Flag-NEK7; IgG (rabbit) or anti-NLRP3 antibody; immunoblot
[4] = target: T2, Flag-AIM2 (UniProt O14862); assay: co-IP; HEK293T cells co-transfected with Flag- and HA-tagged plasmids; RIPA lysis buffer (50 mM Tris-HCl pH 7.4, 150 mM NaCl, 1% NP-40, 1 mM EDTA, 5% glycerol); antibody (anti-Flag, anti-HA or anti-NLRP3) at 4 °C overnight, protein G-agarose 2 h, washes with 300 mM NaCl; immunoblot
T2 sequence: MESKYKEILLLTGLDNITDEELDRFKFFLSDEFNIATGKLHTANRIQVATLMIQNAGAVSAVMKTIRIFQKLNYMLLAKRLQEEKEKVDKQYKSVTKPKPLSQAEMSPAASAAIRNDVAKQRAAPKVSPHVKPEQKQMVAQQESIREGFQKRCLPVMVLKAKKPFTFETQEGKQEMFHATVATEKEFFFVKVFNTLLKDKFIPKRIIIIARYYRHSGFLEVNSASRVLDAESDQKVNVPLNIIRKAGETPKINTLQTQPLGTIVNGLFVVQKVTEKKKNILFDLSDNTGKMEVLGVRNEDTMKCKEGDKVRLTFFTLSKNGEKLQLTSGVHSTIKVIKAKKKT

[5] = target: Flag-NEK7 (UniProt Q8TDX7); assay: as above
[6] = target: Flag-NLRP3 (UniProt Q96P20); assay: as above
[7] = target: NLRP3, endogenous in THP-1 derived macrophages (human (endogenous in THP-1)) (UniProt Q96P20); assay: condition: only without the stimulators of NLRP3 inflammasome; co-IP; endogenous proteins of THP-1 derived macrophages without the stimulators of the NLRP3 inflammasome (LPS-primed, ATP 0 min); IgG, anti-NLRP3 or anti-SLC25A3 antibody; immunoblot
[8] = target: NLRP3, endogenous in THP-1 derived macrophages (human (endogenous in THP-1)) (UniProt Q96P20); assay: co-IP; endogenous proteins of THP-1 derived macrophages after stimulation (LPS then ATP 10-60 min; LPS plus nigericin, with or without NSA, disulfiram or acetylcysteine; Salmonella at different time points); IgG, anti-NLRP3 or anti-SLC25A3 antibody; RIPA buffer, 4 °C overnight; immunoblot

Q: For HA-NLRP3 (from UniProt Q96P20 1-1036), which binding [1] is on record?
A: Its binding is “binds”.

Q: What about the binding [2] of the same molecule?
A: Its binding is “binds”.

B1: HA-SLC25A3 (protein, UniProt Q00325 50-362)
chain: AVEEQYSCDYGSGRFFILCGLGGIISCGTTHTALVPLDLVKCRMQVDPQKYKGIFNGFSVTLKEDGVRGLAKGWAPTFLGYSMQGLCKFGFYEVFKVLYSNMLGEENTYLWRTSLYLAASASAEFFADIALAPMEAAKVRIQTQPGYANTLRDAAPKMYKEEGLKAFYKGVAPLWMRQIPYTMMKFACFERTVEALYKFVVPKPRSECSKPEQLVVTFVAGYIAGVFCAIVSHPADSVVSVLNKEKGSSASLVLKRLGFKGVWKGLFARIIMIGTLTALQWFIYDSVKVYFRLPRPPPPEMPESLKKKLGLTQ
Q: Which results are given for B1?
A: binding [3]: binds; binding [4]: no binding; binding [5]: no binding; binding [6]: binds

B2: SLC25A3, endogenous in THP-1 derived macrophages (protein, UniProt Q00325 50-362)
chain: AVEEQYSCDYGSGRFFILCGLGGIISCGTTHTALVPLDLVKCRMQVDPQKYKGIFNGFSVTLKEDGVRGLAKGWAPTFLGYSMQGLCKFGFYEVFKVLYSNMLGEENTYLWRTSLYLAASASAEFFADIALAPMEAAKVRIQTQPGYANTLRDAAPKMYKEEGLKAFYKGVAPLWMRQIPYTMMKFACFERTVEALYKFVVPKPRSECSKPEQLVVTFVAGYIAGVFCAIVSHPADSVVSVLNKEKGSSASLVLKRLGFKGVWKGLFARIIMIGTLTALQWFIYDSVKVYFRLPRPPPPEMPESLKKKLGLTQ
Q: Which binding [7] does the source give for B2 here?
A: The binding was “no binding”.

Q: And the binding [8]?
A: The binding was “binds”.
